# Data as given in PubChem BioAssay AID1345082 (National Center for Advancing Translational Sciences (NCATS), 2018).
# In all, about 94,000 compounds went through this assay and about 4,000 (4.3%) were called active. The inconclusive results got no clear call from the source; some entries with a clear call stand among them for comparison. Calls follow the shape of the dose curve; as a rule, active = well fitted inhibition curve with a large enough effect; inconclusive = small, poorly fitted or top-dose-only effect; inactive = no such curve, though single readings can be large or run the other way. Where the call is inconclusive, the potency comes from a doubtful curve fit.
# Assay: Cytotoxic Profiling in NIH 3T3 Cell Line of Diverse Libraries Using Quantitative High-Throughput Screening; also: nearly all actives have a fitted effect of over 55% in size
# Settings: NIH 3T3 viability, CellTiter-Glo ATP luminescence, 48-72 h; activity change, negative = cytotoxicity: at 96.7 µM (top of the series); series mostly up to 96.7 µM
# Summary of the method: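 NIH 3T3 cells at 400 cells/well received 23 nL of compound by pintool and were incubated 48 or 72 h at 37 °C. Viability was read as ATP-coupled CellTiter-Glo luminescence.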
# % is scaled to controls: 0 for no effect and ±100 for the full control effect; potency is read from the fitted curve at half-maximal effect; tags tell the direction and shape of the fitted curve.
SMILES,Potency,"activity change, negative = cytotoxicity",outcome
COc1cccc(OCc2nnc(C(=O)N3CCC[C@@H]3c3cccc(F)c3)n2-c2ccccc2)c1,"inconclusive: 50.1 µM [inhibitor, partial curve, poor fit]",,
CC(=O)N1CCCC(C(=O)N2CCC(c3nc4ncccc4[nH]3)CC2)C1 (stereo not given),,inactive: 1.6%,
COc1cc(CN2CCC(C)(NC(C)=O)CC2)cc(-c2c(C)noc2C)c1,"inconclusive: 89.1 µM [inhibitor, partial curve]",,
CS(=O)(=O)N(Cc1cccnc1)C1CN(C(=O)COc2ccc(F)cc2)C1,,inactive: -23.5%,
COc1ccc(S(=O)(=O)N[C@H]2C[C@@H](c3nc(-c4cnccn4)no3)N(C)C2)cc1,,inactive: -7.75% [at 138 µM],
O=C(NCc1nnc2ccc(-c3ccc(F)cc3)nn12)c1ccoc1,,inactive: -10.5%,
O=C(Cc1ccccc1Br)N1CCN(c2cc(-c3cccs3)[nH]n2)CC1,"inconclusive: 28.2 µM [inhibitor, full curve]",,
CC1(CCC(=O)N2CCC(Oc3ccccc3F)(C(=O)O)CC2)CC1,,,inactive
Cc1ccc(C)c(-c2cc3c(=O)n(CCNC(=O)c4ccc(N(C)C)cc4)ccn3n2)c1,"inconclusive: 44.7 µM [inhibitor, partial curve, poor fit]",,
O=C(NCCc1ccccc1)c1nc2sccn2c1-c1cccc(C(F)(F)F)c1,"inconclusive: 15.8 µM [inhibitor, full curve, poor fit]",,
COc1cccc(C(=O)N2CCC(C(NC(=O)c3ccc(F)cc3)C(=O)NCC(C)C)CC2)c1 (stereo not given),,inactive: -20%,
Cc1cc(C)cc(-c2ccc(CN3CCCC3C(=O)Nc3cccc(F)c3)cc2)c1 (stereo not given),"inconclusive: 44.7 µM [inhibitor, partial curve, poor fit]",,
CNC(=O)[C@H]1C[C@]2(CCCCN(CCO)C2=O)N(C(=O)Nc2ccccc2)[C@H]1c1ccco1,"inconclusive: 79.4 µM [inhibitor, partial curve, poor fit]",,
COC1CN(c2cccc(F)c2)C12CCN(C(=O)CC1CCCCC1)CC2 (stereo not given),"inconclusive: 44.7 µM [inhibitor, partial curve, poor fit]",,
CCc1nc(-c2c3n(c(=O)n(CC(=O)Nc4cccc(C)c4C)c2=O)CCCC3)no1,"inconclusive: 70.8 µM [inhibitor, single point]",,
Cc1ccccc1C(=O)NC1CCCN(c2ccc3nnc(C4CC4)n3n2)C1 (stereo not given),,inactive: -25%,
CCOC(=O)C(Cc1cccc(N2CCN(C(=O)c3ccccc3Cl)CC2)c1)OC (stereo not given),"inconclusive: 50.1 µM [inhibitor, partial curve, poor fit]",,
COC(=O)[C@@H]1Cc2ncn(C(C)C)c2CN1S(=O)(=O)c1cccc(C(F)(F)F)c1,"inconclusive: 112 µM [inhibitor, partial curve, poor fit]",,
CC(=O)NC1(C)CCN(Cc2ccccc2-c2ccc3ccccc3c2)C1 (stereo not given),active: 79.4 µM,,
COc1cccc(N2CCN(C(=O)c3ccc4c(c3)C(O)CCCCCN4C)CC2)c1 (stereo not given),"inconclusive: 44.7 µM [inhibitor, partial curve, poor fit]",,
Cc1ncsc1C1N(C2CCN(C(=O)C3CCC3)CC2)C(=O)C12CCCC2 (stereo not given),"inconclusive: 50.1 µM [inhibitor, partial curve, poor fit]",,
COCCN1Cc2ccc(NCc3ccccc3)nc2C(C)(C(=O)Nc2ccn(C)n2)C1 (stereo not given),"inconclusive: 56.2 µM [inhibitor, partial curve, poor fit]",,

SMILES,Potency,"activity change, negative = cytotoxicity",outcome
O=C(NCc1cccc(Cl)c1)c1cnc2c(c1)N(C(=O)CCc1ccccc1)CCC2,active: 100 µM,,
COc1ccc(C(=O)N2CCC(n3nccc3NC(=O)c3cccc(F)c3)CC2)cc1C,,inactive: -21.4%,
CCCOC1CCCN(C(=O)c2ccc3nc(-c4ccc(F)cc4)cn3c2)C1 (stereo not given),,inactive: -1.56%,
COc1ccc(CN2CC[C@H](c3nnc(-c4cccnc4)o3)C2)c(O)c1,"inconclusive: 126 µM [inhibitor, single point]",,
COc1cc(C(=O)N[C@@H]2[C@@H](c3ccccc3)[C@@H](CO)N3CCCC[C@H]23)cc(OC)c1OC,"inconclusive: 44.7 µM [inhibitor, partial curve, poor fit]",,
COc1cccc(CN2Cc3c(CNc4cccc(C(F)(F)F)c4)nnn3CCC2=O)c1,"inconclusive: 44.7 µM [inhibitor, partial curve, poor fit]",,
O=C1c2c(nc(COc3cccc(F)c3)n2Cc2ccccc2)NCCN1CC1CC1,active: 89.1 µM,,
CCCNc1cc(N2CCC(CCC(=O)N3CCN(c4ccccc4F)CC3)CC2)ncn1,"inconclusive: 28.2 µM [inhibitor, partial curve, poor fit]",,
O=C(c1ccc(Cl)cc1)N1CC2(CCN(CC3CCCC3)C2)OCc2ccccc21 (stereo not given),"inconclusive: 50.1 µM [inhibitor, partial curve, poor fit]",,
COc1cc(=O)n2c(c1C(=O)Nc1ccc(C)cc1)CCCC2,"inconclusive: 79.4 µM [inhibitor, partial curve, poor fit]",,
COc1ccc(C(=O)NC2CCCN(c3cc(-c4ccc(F)cc4)[nH]n3)C2)cc1F (stereo not given),"inconclusive: 50.1 µM [inhibitor, partial curve, poor fit]",,
OC1CC(c2cc(N3CCC(CCn4cccn4)CC3)ncn2)C1 (stereo not given),"inconclusive: 2.51 µM [inhibitor, full curve, poor fit]",,
Cc1ccc(-c2noc([C@@H]3C[C@@H](O)CN3Cc3cccnc3)n2)cc1F,"inconclusive: 39.8 µM [inhibitor, full curve]",,
CCCCCNC(=O)c1cccc(-c2ccc(OC)nn2)c1,"inconclusive: 56.2 µM [inhibitor, partial curve, poor fit]",,
CCN1c2cc(C(=O)Nc3ccc(SC)cc3)ccc2C(=O)N2CCCCCC21 (stereo not given),"inconclusive: 50.1 µM [inhibitor, partial curve, poor fit]",,
COc1cccc(CNC(=O)C2CCN(c3nccc(Nc4ccccc4F)n3)CC2)c1,"inconclusive: 28.2 µM [inhibitor, full curve]",,
Cn1ccnc1CN1C(=O)CO[C@H]2CN(C(=O)c3ccccn3)C[C@H]21,"inconclusive: 126 µM [inhibitor, single point]",,
CCC(=O)N1CC(C(=O)N2CCN(c3ccccn3)CC2)C2(CCOCC2)C1 (stereo not given),,inactive: 3.75%,
COc1ccc(CN2CCCC3(COc4ccccc4[S+](=O)([O-])N3)C2)cc1 (stereo not given),,inactive: -22%,
Cc1nn(-c2ccccc2)c2c1C(C1CC1)N(C1CN(C(=O)c3ccc(Cl)nc3)C1)C2=O (stereo not given),"inconclusive: 44.7 µM [inhibitor, partial curve, poor fit]",,
COc1ccccc1OCCNC(=O)c1ccc(Cn2ccn3nc4c(c3c2=O)CCCC4)cc1,"inconclusive: 11.2 µM [inhibitor, full curve]",,
CC1(COc2ccc3[nH]ccc3c2)COc2ccc(C(=O)NCc3cccs3)cc2N1 (stereo not given),"inconclusive: 89.1 µM [inhibitor, partial curve]",,

SMILES,Potency,"activity change, negative = cytotoxicity",outcome
Cc1ccc(S(=O)(=O)NC[C@H]2O[C@@H](CC(=O)N3CCN(c4ccccc4)CC3)[C@H](O)[C@@H]2O)cc1,,inactive: -25.7%,
Fc1ccc(Cc2noc(-c3nc(-c4ccccc4)no3)n2)cc1,,inactive: -4.55%,
CCS(=O)(=O)N1CCC2(CC1)CN(C(C)=O)CC2COC (stereo not given),,inactive: -8.36%,
CC(C)CNC(=O)c1cn2cc(-c3ccc(F)cc3)sc2n1,"inconclusive: 39.8 µM [inhibitor, partial curve]",,
CC(c1ccon1)N(C)C(=O)c1csc2nc(-c3cccc(C(F)(F)F)c3)cn12 (stereo not given),"inconclusive: 50.1 µM [inhibitor, partial curve, poor fit]",,
CCC(=O)N1CCc2ccc(OCc3nc(C(=O)NCCOC)co3)cc2C1c1ccc(C)cc1 (stereo not given),,inactive: -27.7%,
Cc1cccc(NC(=O)Nc2ccc(C)n(CC(=O)NCCN3CCCC3)c2=O)c1,,inactive: -13.2%,
COc1ccc2c(c1)C(COCc1ccccc1)=CC(C)(C)CO2,,inactive: -26.7%,
O=C(Cn1ccn2nc(-c3ccccc3)c(CO)c2c1=O)Nc1cc(Cl)cc(Cl)c1,,inactive: -23.8%,
CN1Cc2ccc(NCc3ccccc3)nc2C(C)(C(=O)NCCc2cnc[nH]2)C1 (stereo not given),"inconclusive: 112 µM [inhibitor, single point]",,
COc1cccc(NC(=O)[C@@H]2C[C@@H](c3ccc(F)cc3)N(Cc3ccccc3)C2)c1,active: 31.6 µM,,
Cc1nn(-c2ccccc2)c2c1C(C(C)C)N(C1CCCN(C(=O)c3ccccc3)C1)C2=O (stereo not given),"inconclusive: 25.1 µM [inhibitor, full curve]",,
O=C(C1CCCN1C(=O)c1ccccc1Cl)N1CCC(N2Cc3ccccc3C2=O)CC1 (stereo not given),,inactive: -9.44%,
CCc1ccccc1NC(=O)N1CCC(Oc2ncccc2C(=O)N2CCOCC2)C1 (stereo not given),,inactive: -8.85%,
CN1CC2(CCN(Cc3cc(C#N)n(C)c3)CC2)CC(c2ccccc2)C1=O (stereo not given),,inactive: -3.29%,
COCCN1C(=O)Cc2ccccc2C1C(=O)NCc1cccc(Cl)c1 (stereo not given),,inactive: -8.09%,
CCNC(=O)CN1C(=O)NC(CCc2ccccc2)(C2CCNCC2)C1=O (stereo not given),,inactive: -16.8%,
Cc1ccc(-c2[nH]ncc2CN2CCN(c3ccc(Cl)cn3)CC2)cc1C,"inconclusive: 89.1 µM [inhibitor, single point]",,
CC(C)c1ccc(CC(=O)N2CCCc3ncc(C(=O)Nc4ccn(C)n4)cc32)cc1,"inconclusive: 56.2 µM [inhibitor, partial curve, poor fit]",,
O=C(CCn1ccc(=O)[nH]c1=O)N1CCn2nc(Cc3ccccc3)cc2C1,,inactive: 0.159%,
O=C(Oc1ccccc1)N1CCC(Oc2cnc3c(ccn3-c3cncnc3)c2)CC1,"inconclusive: 50.1 µM [inhibitor, full curve, poor fit]",,
